Here are results for two compounds from patent publication US9566281B2 (Westfaelische Wilhelms-Universitaet, priority 2012, dated 2017).

The test system of the test is A/Regensburg/D6/09, H1N1pdm09, RB1. To be noted: mouse, in vivo.

For `O=C(NOCC1CC1)c1ccc(F)c(F)c1Nc1ccc(I)cc1Cl` [CI-1040], the “reducing virus titer in the lung” value was “potent”.

Consider `O=C(NOC[C@H](O)CO)c1ccc(F)c(F)c1Nc1ccc(I)cc1F` [PD-0325901], for which the “reducing virus titer in the lung” value is given as “potent”.
